Measured values taken from the supplement of paper PMC11741623.
This is one part of the list. Interaction screen of human proteins with wild-type SARS-CoV-2 proteins by split-DHFR complementation in yeast, 1 µg/mL methotrexate. Value = fitness of the pair (three or more lineages) minus that of the viral protein without a human partner, on a scale set by negative (0) and fused positive (1) controls, mean of up to three cultures; higher = more likely to interact. Active = false discovery rate below 0.05 (one-sided t-test) in at least one culture. Nearly all pairs are not hits, and differences among them are mostly noise (correlation between cultures about 0.3); most hits were seen in one culture only. Human sequences are the Swiss-Prot entries looked up by gene name; the clone may be another isoform. NSP2 values were corrected by the authors for a growth advantage. Listed are human proteins with a hit and a random twelfth of the others.

B1: IGHD, P01880 (protein)
chain: APTKAPDVFPIISGCRHPKDNSPVVLACLITGYHPTSVTVTWYMGTQSQPQRTFPEIQRRDSYYMTSSQLSTPLQQWRQGEYKCVVQHTASKSKKEIFRWPESPKAQASSVPTAQPQAEGSLAKATTAPATTRNTGRGGEEKKKEKEKEEQEERETKTPECPSHTQPLGVYLLTPAVQDLWLRDKATFTCFVVGSDLKDAHLTWEVAGKVPTGGVEEGLLERHSNGSQSQHSRLTLPRSLWNAGTSVTCTLNHPSLPPQRLMALREPAAQAPVKLSLNLLASSDPPEAASWLLCEVSGFSPPNILLMWLEDQREVNTSGFAPARPPPQPRSTTFWAWSVLRVPAPPSPQPATYTCVVSHEDSRTLLNASRSLEVSYLAMTPLIPQSKDENSDDYTTFDDVGSLWTTLSTFVALFILTLLYSGIVTFIKVK
B2: KBTBD5, Q2TBA0 (protein)
chain: MALGLEQAEEQRLYQQTLLQDGLKDMLDHGKFLDCVVRAGEREFPCHRLVLAACSPYFRARFLAEPERAGELHLEEVSPDVVAQVLHYLYTSEIALDEASVQDLFAAAHRFQIPSIFTICVSFLQKRLCLSNCLAVFRLGLLLDCARLAVAARDFICAHFTLVARDADFLGLSADELIAIISSDGLNVEKEEAVFEAVMRWAGSGDAEAQAERQRALPTVFESVRCRLLPRAFLESRVERHPLVRAQPELLRKVQMVKDAHEGRITTLRKKKKGKDGAGAKEADKGTSKAKAEEDEEAERILPGILNDTLRFGMFLQDLIFMISEEGAVAYDPAANECYCASLSNQVPKNHVSLVTKENQVFVAGGLFYNEDNKEDPMSAYFLQFDHLDSEWLGMPPLPSPRCLFGLGEALNSIYVVGGREIKDGERCLDSVMCYDRLSFKWGESDPLPYVVYGHTVLSHMDLVYVIGGKGSDRKCLNKMCVYDPKKFEWKELAPMQTARSLFGATVHDGRIIVAAGVTDTGLTSSAEVYSITDNKWAPFEAFPQERSSLSLVSLVGTLYAIGGFATLETESGELVPTELNDIWRYNEEEKKWEGVLREIAYAAGATFLPVRLNVLCLTKM

What follows are binders tested against SARS-CoV-2 E (assay: yeast fitness gain over the viral ORF with no human partner (scaled fitness); higher = more likely to interact).
Protocol: (§1)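 Split mouse DHFR complementation in pooled diploid yeast: human ORFeome clones carry one fragment and viral ORFs the other; barcoded lineages compete in 1 µg/mL methotrexate and fitness is read by barcode sequencing in up to three cultures.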

Binder | yeast fitness gain
B1 | inactive: 0.0232
B2 | inactive: 0.0359

Each binder was assayed against SARS-CoV-2 M in the same assay as above.
Protocol: as §1

Binder | yeast fitness gain
B1 | inactive: -0.0536
B2 | inactive: -0.0399

What follows are binders tested against SARS-CoV-2 N in the same assay as above.
Protocol: as §1

Binder | yeast fitness gain
B1 | inactive: -0.0246

These binders were tested against SARS-CoV-2 NSP1 in the same assay as above.
Protocol: as §1

Binder | yeast fitness gain
B1 | inactive: 0.00844

Each binder was assayed against SARS-CoV-2 NSP10 in the same assay as above.
Protocol: as §1

Binder | yeast fitness gain
B1 | inactive: -0.0579
B2 | inactive: 0.0575

These binders were tested against SARS-CoV-2 NSP12 in the same assay as above.
Protocol: as §1

Binder | yeast fitness gain
B1 | inactive: 0.0607
B2 | inactive: 0.0375

The binders below were run against SARS-CoV-2 NSP13 in the same assay as above.
Protocol: as §1

Binder | yeast fitness gain
B1 | inactive: 0.0548
B2 | inactive: 0.00445

What follows are binders tested against SARS-CoV-2 NSP14 in the same assay as above.
Protocol: as §1

Binder | yeast fitness gain
B1 | inactive: -0.0228
B2 | inactive: -0.00112

These binders were tested against SARS-CoV-2 NSP15 in the same assay as above.
Protocol: as §1

Binder | yeast fitness gain
B1 | inactive: 0.0375
B2 | inactive: 0.0305

The binders below were run against SARS-CoV-2 NSP16 in the same assay as above.
Protocol: as §1

Binder | yeast fitness gain
B1 | inactive: 0.0666
B2 | inactive: 0.0871

What follows are binders tested against SARS-CoV-2 NSP2 in the same assay as above.
Protocol: as §1

Binder | yeast fitness gain
B1 | inactive: -0.0648
B2 | inactive: -0.107

Each binder was assayed against SARS-CoV-2 NSP4 in the same assay as above.
Protocol: as §1

Binder | yeast fitness gain
B1 | inactive: -0.192
B2 | inactive: 0.0262

The binders below were run against SARS-CoV-2 NSP5 in the same assay as above.
Protocol: as §1

Binder | yeast fitness gain
B1 | inactive: -0.0223
B2 | inactive: 0.0771

What follows are binders tested against SARS-CoV-2 NSP6 in the same assay as above.
Protocol: as §1

Binder | yeast fitness gain
B1 | inactive: 0.0042

What follows are binders tested against SARS-CoV-2 NSP7 in the same assay as above.
Protocol: as §1

Binder | yeast fitness gain
B1 | inactive: -0.00723

The binders below were run against SARS-CoV-2 NSP8 in the same assay as above.
Protocol: as §1

Binder | yeast fitness gain
B1 | inactive: -0.0128
B2 | inactive: -0.0298

These binders were tested against SARS-CoV-2 NSP9 in the same assay as above.
Protocol: as §1

Binder | yeast fitness gain
B1 | inactive: 0.0329

The binders below were run against SARS-CoV-2 ORF10 in the same assay as above.
Protocol: as §1

Binder | yeast fitness gain
B1 | inactive: 0.0194
B2 | inactive: 0.0665

The binders below were run against SARS-CoV-2 ORF3A in the same assay as above.
Protocol: as §1

Binder | yeast fitness gain
B1 | inactive: 0.0692

What follows are binders tested against SARS-CoV-2 ORF3B in the same assay as above.
Protocol: as §1

Binder | yeast fitness gain
B1 | inactive: 0.0842
B2 | inactive: 0.00322

Each binder was assayed against SARS-CoV-2 ORF6 in the same assay as above.
Protocol: as §1

Binder | yeast fitness gain
B1 | inactive: 0.0486
B2 | inactive: -0.0294

Each binder was assayed against SARS-CoV-2 ORF7A in the same assay as above.
Protocol: as §1

Binder | yeast fitness gain
B1 | inactive: 0.0609

What follows are binders tested against SARS-CoV-2 ORF7B in the same assay as above.
Protocol: as §1

Binder | yeast fitness gain
B1 | inactive: 0.00603
B2 | inactive: -0.081

These binders were tested against SARS-CoV-2 ORF8 in the same assay as above.
Protocol: as §1

Binder | yeast fitness gain
B1 | inactive: 0.0116
B2 | inactive: -0.0345

These binders were tested against SARS-CoV-2 ORF9B in the same assay as above.
Protocol: as §1

Binder | yeast fitness gain
B1 | inactive: 0.00602
B2 | inactive: 0.0564

Each binder was assayed against SARS-CoV-2 ORF9Bwu (the 73-codon ORF) in the same assay as above.
Protocol: as §1

Binder | yeast fitness gain
B1 | inactive: 0.0436
B2 | inactive: 0.054

Each binder was assayed against SARS-CoV-2 S in the same assay as above.
Protocol: as §1

Binder | yeast fitness gain
B1 | inactive: 0.0866
B2 | inactive: 0.0541
